Experimental data reported in publication PMC4745757.
These are yes or no findings as the source states them, for the method shown. In cells and extracts the contact can be indirect. Some entries that bind do so weakly or less than the wild type.

The chains behind the UniProt entries cited, without tags or fusion partners. Where a name states a change or a piece, a line headed by the entry shows the natural chain unless it says otherwise.
UniProt P12956: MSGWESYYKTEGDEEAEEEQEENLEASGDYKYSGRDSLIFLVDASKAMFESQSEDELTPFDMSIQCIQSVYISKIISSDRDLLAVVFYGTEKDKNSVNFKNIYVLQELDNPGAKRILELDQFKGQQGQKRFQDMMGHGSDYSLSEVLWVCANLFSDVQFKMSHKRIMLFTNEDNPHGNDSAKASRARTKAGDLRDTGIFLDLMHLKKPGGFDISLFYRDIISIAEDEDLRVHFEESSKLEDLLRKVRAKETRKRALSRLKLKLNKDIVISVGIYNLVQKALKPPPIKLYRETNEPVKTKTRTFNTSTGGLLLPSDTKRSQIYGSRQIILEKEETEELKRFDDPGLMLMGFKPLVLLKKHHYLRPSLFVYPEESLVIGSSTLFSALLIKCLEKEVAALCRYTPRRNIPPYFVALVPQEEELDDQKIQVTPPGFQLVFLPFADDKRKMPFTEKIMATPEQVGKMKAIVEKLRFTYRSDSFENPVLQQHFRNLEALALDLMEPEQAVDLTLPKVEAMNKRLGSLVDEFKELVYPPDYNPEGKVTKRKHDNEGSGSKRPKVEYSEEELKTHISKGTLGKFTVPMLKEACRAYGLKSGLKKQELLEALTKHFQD
UniProt Q00613: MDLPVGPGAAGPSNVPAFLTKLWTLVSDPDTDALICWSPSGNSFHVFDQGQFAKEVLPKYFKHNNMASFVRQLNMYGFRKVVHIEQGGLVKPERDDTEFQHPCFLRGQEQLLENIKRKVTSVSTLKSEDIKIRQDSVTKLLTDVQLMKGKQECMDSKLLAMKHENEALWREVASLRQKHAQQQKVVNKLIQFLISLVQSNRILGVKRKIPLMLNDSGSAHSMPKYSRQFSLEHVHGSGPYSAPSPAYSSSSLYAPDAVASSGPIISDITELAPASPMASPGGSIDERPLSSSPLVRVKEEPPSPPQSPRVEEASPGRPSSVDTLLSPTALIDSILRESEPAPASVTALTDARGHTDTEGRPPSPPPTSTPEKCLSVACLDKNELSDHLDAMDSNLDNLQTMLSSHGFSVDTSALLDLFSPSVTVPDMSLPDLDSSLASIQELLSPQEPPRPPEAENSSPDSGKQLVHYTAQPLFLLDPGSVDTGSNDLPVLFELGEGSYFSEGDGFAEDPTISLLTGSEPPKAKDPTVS
UniProt P04792: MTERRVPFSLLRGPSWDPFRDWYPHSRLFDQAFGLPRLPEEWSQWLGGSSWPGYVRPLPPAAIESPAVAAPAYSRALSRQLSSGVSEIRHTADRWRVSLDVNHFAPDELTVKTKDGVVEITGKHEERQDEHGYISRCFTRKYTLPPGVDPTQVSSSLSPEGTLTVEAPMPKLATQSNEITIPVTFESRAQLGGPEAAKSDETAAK
UniProt P13010: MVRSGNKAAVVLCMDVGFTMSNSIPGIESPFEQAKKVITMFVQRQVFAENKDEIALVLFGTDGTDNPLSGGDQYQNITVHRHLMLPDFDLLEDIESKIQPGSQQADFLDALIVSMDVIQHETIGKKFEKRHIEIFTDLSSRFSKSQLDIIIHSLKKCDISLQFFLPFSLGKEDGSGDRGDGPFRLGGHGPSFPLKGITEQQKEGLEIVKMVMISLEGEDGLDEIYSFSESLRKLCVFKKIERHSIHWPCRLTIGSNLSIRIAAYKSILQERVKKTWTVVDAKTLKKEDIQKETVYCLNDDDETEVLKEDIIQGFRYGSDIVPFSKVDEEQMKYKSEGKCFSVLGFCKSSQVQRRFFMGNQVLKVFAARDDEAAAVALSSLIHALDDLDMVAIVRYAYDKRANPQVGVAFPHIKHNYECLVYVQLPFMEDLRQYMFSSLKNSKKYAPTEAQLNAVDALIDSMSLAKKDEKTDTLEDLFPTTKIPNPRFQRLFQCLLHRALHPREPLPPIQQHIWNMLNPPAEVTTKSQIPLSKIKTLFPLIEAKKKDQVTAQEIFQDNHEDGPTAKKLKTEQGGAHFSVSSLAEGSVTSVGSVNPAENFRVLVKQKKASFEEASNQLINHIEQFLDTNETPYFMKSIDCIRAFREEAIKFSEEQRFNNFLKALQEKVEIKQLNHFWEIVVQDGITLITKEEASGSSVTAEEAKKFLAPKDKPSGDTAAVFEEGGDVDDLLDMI

How the values were obtained:
[1] = biological target: Ku70, endogenous (human (endogenous in HOS, NCI-H460, HCT116, HEK293T)) (UniProt P12956); assay: co-IP; Flag-tagged HSF1 constructs (wild type, deletion and point mutants) transiently transfected into HEK293T cells; western blotting following immunoprecipitation of cell extracts
[2] = biological target: GST-HSF1 fusion protein (human) (UniProt Q00613); assay: pull-down; GST-HSF1 fusion proteins loaded on glutathione-sepharose beads, incubated with HOS cellular lysates in binding buffer for 18 hours at 4°C; western blotting; only the target purified
[3] = biological target: Ku70, endogenous (human (endogenous in HOS, NCI-H460, HCT116, HEK293T)) (UniProt P12956); assay: co-IP; immunoprecipitation from HOS cell extracts (50 mM HEPES pH 7.6, 150 mM NaCl, 5 mM EDTA, 0.1% Nonidet P-40), protein A-Sepharose, western blotting; cells untreated, exposed to 5 Gy IR, heat shocked (42°C, 30 min), or transfected with Si-HSF1 or HSF1 wild type plasmid
[4] = biological target: GST-HSF1 fusion protein (human) (UniProt Q00613); assay: co-IP; in vitro translated Ku70/Ku86 proteins incubated with GST-HSF1; immunoprecipitates subjected to an in vitro binding assay; only the target purified
[5] = biological target: Ku70, endogenous (human (endogenous in HOS, NCI-H460, HCT116, HEK293T)) (UniProt P12956); assay: co-IP; immunoprecipitation from NCI-H460 cell extracts; cells heat shocked or exposed to IR (Supplementary Figure 6C)
[6] = biological target: Ku70, endogenous (human (endogenous in HOS, NCI-H460, HCT116, HEK293T)) (UniProt P12956); assay: co-IP; Si-Control or Si-HSF1 transfected HCT116 (p53+/+ and p53-/-) cells exposed to 5 Gy IR; western blotting following immunoprecipitation of cell extracts
[7] = biological target: Ku70, endogenous (human (endogenous in HOS, NCI-H460, HCT116, HEK293T)) (UniProt P12956); assay: co-IP; purified recombinant HSF1-GST proteins (0, 10, 50, and 100 ng/ml) added to HOS cell extracts; after 16 hrs immunoprecipitation and western blotting; pair of the added HSF1 and a Ku protein; only the binder purified

Substance | binding [1] | further results
Flag-HSF1-S216A (from UniProt Q00613 1-529) | binds | –
Ku70, endogenous (from UniProt P12956 1-609) | – | binding [2]: binds
Flag-HSF1-S326A (from UniProt Q00613 1-529) | binds | –
Flag-HSF1-K298R (from UniProt Q00613 1-529) | binds | –
HSP27, endogenous (from UniProt P04792 1-205) | – | binding [3]: no binding
in vitro translated full-length wild-type Ku70 (from UniProt P12956 1-609) | – | binding [4]: binds
Flag-HSF1-S326E (from UniProt Q00613 1-529) | binds | –
Heat shock factor 1 (HSF1), endogenous (from UniProt Q00613 1-529) | – | binding [5]: binds; binding [6]: binds; binding [3]: binds
in vitro translated full-length wild-type Ku86 (from UniProt P13010 1-732) | – | binding [4]: binds
GST-HSF1 fusion protein (from UniProt Q00613 1-529) | – | binding [7]: binds

The next lines start with results.

binding [1] | Substance | further results
binds | Flag-HSF1-S419E (from UniProt Q00613 1-529) | –
binds | Flag-HSF1-S419A (from UniProt Q00613 1-529) | –
binds | Flag-tagged wild-type HSF1 (from UniProt Q00613 1-529) | –
binds | Flag-HSF1-K80R (from UniProt Q00613 1-529) | –
binds | Flag-HSF1-S216E (from UniProt Q00613 1-529) | –
